Results taken from PubChem BioAssay (NCI).
Where “and” joins values, the source holds several entries; their conditions need not be identical. Equal values may be shown once.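 96-well plates; 48 h exposure; 5 concentrations. Endpoints by linear interpolation between flanking doses. Not reached: highest tested concentration assigned. Abbreviation: GI50, concentration required for 50% inhibition of growth. TGI: total growth inhibition.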

System: NCI-H322M lung
Assay: NCI anticancer screen, dose series, 48 h

Structure (SMILES)	TGI	GI50
C/C=C1/CN2CCC3(O)c4ccccc4N4C=C(C(=O)OC)C1CC2C43O (configuration not stated)	> 100 µM	–
COC1C(O)C(C)OC(OC2C(Oc3cccc4c(O)c5c(=O)oc6ccc(C)c7c(=O)oc(c34)c5c67)OC(C)C(O)C2O)C1O (configuration not stated)	25.6 µM and 16.1 µM	3.72 µM
Clc1ccccc1C1=NN(c2ccccc2)C2c3ccccc3OCC12 (configuration not stated)	> 100 µM	–
Cc1cc(Nc2c3ccccc3nc3ccccc23)ccc1NS(C)(=O)=O	15.7 µM	4.34 µM
COc1cc(O)c2c(c1)C(=O)C=C(Cl)C2=O	> 100 µM	–
CN1CCN(c2cc(C(=O)Nc3cc4cc(-c5cnn(C)c5)ccc4cn3)ccn2)CC1	11.9 µM	0.146 µM
CN1CCCCC(C#N)(c2ccccc2)CC1 (configuration not stated)	> 100 µM	–
CC(C)(C)c1cc2c(O)c(c1)Cc1cc(C(C#N)(Cc3ccc4ccccc4c3)Cc3ccc4ccccc4c3)cc(c1O)Cc1cc(C(C)(C)C)cc(c1O)Cc1cc(C(C#N)(Cc3ccc4ccccc4c3)Cc3ccc4ccccc4c3)cc(c1O)C2	> 100 µM	–
COC(=O)c1cccc(N[C@@H]2c3cc4c(cc3C(c3cc(OC)c(O)c(OC)c3)[C@H]3C(=O)OCC32)OCO4)c1 (some centres not stated)	> 100 µM	–
Brc1c(C#CCC(c2ccccc2)(c2ccccc2)c2ccccc2)ccc(C#CCC(c2ccccc2)(c2ccccc2)c2ccccc2)c1Br	> 100 µM	–
CS(=O)(=O)c1c(N)c2nc(Cl)cn2c2nc3ccccc3nc12	> 100 µM	–
CS(=O)(=O)Nc1cccc(-c2cc(-c3ccccc3Cl)c(C#N)c(N)n2)c1	24.4 µM	6.38 µM
O=C(CCCNc1nc(-c2ccccc2)cs1)c1cccs1	> 100 µM	–
O=[N+]([O-])/C=C/c1cc2ccccc2[nH]1	31.1 µM	–
S=C(Nc1ccc(Cl)cc1)Nc1ccc(-c2nc3ccccc3o2)cc1	75.7 µM	15.8 µM
CCCCc1ccc(Nc2nc(=S)c3[nH]cnc3[nH]2)cc1	46.8 µM	–
CCN1C2=NCCN2S(=O)(=O)c2ccccc21	> 100 µM	–
COc1ccc(/C=C2\CC(C)CC3C2=NN(C(C)=O)C3c2ccc(OC)cc2)cc1 (configuration not stated)	> 100 µM	27.1 µM
COc1ccc(NC(=O)CC/C(CC(=O)C(C)(C)C)=N\NC(=O)C(N)=O)cc1	> 100 µM	–
COc1cc(/C=C/c2cc(/C=C/c3ccc(O)c(OC)c3)nc(N)n2)ccc1O	5.39 µM	2.22 µM
CCOC(=O)Cc1csc2[n+]1C(=O)/C(=C/c1cccc(OC)c1O)S2	> 100 µM	–

Structure (SMILES)	TGI	GI50
C[C@]12Cc3cnn(-c4ccc(F)cc4)c3NC1CC[C@@H]1C2CC[C@@]2(C)C1CC[C@@H]2O (some centres not stated)	29.5 µM	–
Cc1nc2c(nc1C)-c1c(c3c(n1C)C(=O)CCC3)C(=O)C2=O	3.15 µM	–
Cc1nccc2c3ccc(OCc4cn(-c5ccc(Cl)cc5)nn4)cc3n(CCCc3ccccc3)c12	> 33.3 µM	19.1 µM
COC(=O)C1c2c(c3ccccc3n2C(=O)OC)CCN2CCC1C(S(=O)(=O)c1ccccc1)C2=O (configuration not stated)	> 100 µM	–
CCN(CC)CCNC(=O)c1ccc(I)cc1	> 100 µM	–
S=P1(N2CCCCC2)Oc2ccc3ccccc3c2-c2c(ccc3ccccc23)O1	> 100 µM	–
COc1ccc(-c2nc(C(=O)c3ccccc3)n(CC(=O)c3ccccc3)c2-c2ccc(OC)cc2)cc1	> 100 µM	> 100 µM
CCN(CC)c1ccc2c(c1)Oc1nc(N)c(C#N)c(N)c1C2Sc1ccc(OC)cc1 (configuration not stated)	3.03 µM	1.65 µM
Cc1ccc(N=N/C(=N/NC(=O)c2cc(Cl)ccc2C(=O)c2ccccc2)c2ccc(N(CCC#N)CCC#N)cc2C)cc1	> 100 µM	–
O=C(Cc1csc(N=Nc2c(O)[nH]c3ccccc23)n1)Nc1ccccc1	> 100 µM	–
Oc1ccccc1C=Nc1ccc(-c2nc3ccccc3[nH]2)cc1	> 100 µM	–
O=C1c2ccccc2NC1(c1ccccc1)c1c(-c2ccccc2)[nH]c2ccccc12 (configuration not stated)	> 100 µM	–
Cc1ccc2c(sc(-c3ccc4c(c3)sc(-c3ccc5c(c3)sc(-c3ccc(N(C)C)cc3)[n+]5C)[n+]4C)[n+]2C)c1S(=O)(=O)O (tested in a mixture with another compound)	> 100 µM	–
CC(=O)N1c2ccccc2NC2=C(C(=O)N(Cc3ccccc3)C2(C)C)C1c1ccco1 (configuration not stated)	> 25 µM	1.11 µM
Cc1ccc2c(c1)C(=O)N1CCC[C@H]1C=N2	> 100 µM	–
CC(=O)[O-].[Mn+3].[O-]c1ccccc1C=NCCN=Cc1ccccc1[O-]	> 100 µM	60 µM
CC(=O)O[C@H]1CCC2[C@@H]3CCC4=C(O)C(=O)C(C#N)C[C@]4(C)C3CC[C@@]21C (some centres not stated)	> 100 µM	–
Cc1cc2cn3c4ccc(O)cc4[nH]c(=O)c3c2cc1C	1.83 µM	0.0593 µM
N=C(N)c1ccc(-c2ccc(-c3ccccc3)s2)cc1	2.72 µM	1.4 µM
CC(C)CC(=O)Nc1n[nH]c2c1CN(C(=O)C1CCN(C)CC1)C2(C)C	> 10 µM	2.14 µM
CC(=O)NNc1nc(C)c(C(/C=C/c2ccc([N+](=O)[O-])cc2)=N/NC(N)=S)s1	> 100 µM	–

Structure (SMILES)	TGI	GI50
CCOC(=O)c1nc2ccccc2nc1Nc1ccc(OC)c(OC)c1	> 100 µM	–
O=C(/C=N/O)Nc1cc(Cl)c(Cl)cc1Cl	> 100 µM	–
O=C(Nc1cc2c(=O)oc3ccccc3c2oc1=O)c1cccnc1	> 100 µM	–
COc1ccc2c(c1)/C(=C\c1c(C)nc3sc(C)cn13)C(=O)N2	> 100 µM	–
Nc1ncc(Cl)c(NCC2(CO)CC(CCc3ccccc3)C2)n1 (configuration not stated)	> 100 µM	–
CC1(C)CC(=O)C2=C(C1)NC1=C(C(=O)CC(C)(C)C1)C2c1ccc([N+](=O)[O-])cc1	> 100 µM	–
CN1C(c2ccccc2)CS(=O)(=O)CS1(=O)=O (configuration not stated)	> 100 µM	–
C/C1=C/C(C)CC(C)OC(=O)C(C)NC(=O)C(Cc2ccc(O)c(I)c2)N(C)C(=O)C(C)NC(=O)C(C)C1 (configuration not stated)	> 100 µM	–
COC1=CC23CCCN2CCc2cc4c(cc2C3C1O)OCO4 (configuration not stated)	> 100 µM	–
N#CC(C#N)N=Nc1ccc(Br)cc1	> 100 µM	41.6 µM
COC(=O)Nc1nc2ccc(C(=O)c3ccc(N(C)C4COC4)cc3)cc2[nH]1	> 100 µM	0.65 µM
O=C(c1ccccc1)c1oc2ccc(Br)cc2c1-c1cnn(-c2ccccc2)c1	> 100 µM	–
O=Cc1ccc(-c2ccc(-c3nc4ccccc4o3)cc2)s1	58.2 µM	17.7 µM
CCCCCCCC/C=C\CCCCCCCC(=O)O	> 500 µM	–
COc1ccc(C(=O)C(c2ccc(OC)cc2)C2OC(=O)C(Cl)=C2Cl)cc1 (configuration not stated)	> 100 µM	–
Cc1nc(-c2ccccc2)cc2c1c(=O)oc1ccccc12	> 100 µM	–
CCOP(=O)(C/C=C/Cn1nc(Br)c(=O)[nH]c1=O)OCC	> 100 µM	–
CCNc1nnc(-c2nsc3ccccc23)s1	64.3 µM	–
O=S(=O)(N/N=C/c1cccc(Cl)c1Cl)c1ccccc1	> 100 µM	–
NCCN.NCCN.O=C[O-].O=C[O-].[Co+3].[O-][Cl+3]([O-])([O-])[O-]	> 100 µM	> 100 µM
O=C1NC(N2CCCCC2)=N/C1=C\c1cccs1	> 100 µM	–
